Results: PubChem BioAssay AID652104 (National Center for Advancing Translational Sciences (NCATS), 2013)
Screen size: about 410,000 compounds; about 7,200 (1.8%) were called active. The shares of active, inactive and inconclusive entries below differ from those in the screen. Calls follow the shape of the dose curve; as a rule, active = well fitted activation curve with a large enough effect; inconclusive = small, poorly fitted or top-dose-only effect, or another doubt; inactive = no such curve, though single readings can be large or run the other way. No potency is given beside an inconclusive call; the fits are too rough.

experiment: qHTS of TDP-43 Inhibitors; details: TDP-43 expressing yeast growth rescue, BacTiter-Glo, 24 h; growth rescue (activation): at 46.1 µM (top of the series) unless noted; also: nearly all actives have a fitted effect of over 50% in size; as to growth rescue (activation): % of control where 0% means no effect
In short: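 In this qHTS, compounds that restore growth of yeast expressing TDP-43 appear as activators. Cells (OD600=0.02, galactose medium, raffinose-pregrown) are incubated with compound 24 hr at 30 deg C and growth is quantified by BacTiter-Glo.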
Potency is read from the fitted curve at half-maximal effect; tags tell the direction and shape of the fitted curve.

SMILES	Potency	growth rescue (activation)
O=C1CC(c2ccc(F)cc2)CC2=C1C=Nc1ccccc1N2 (stereo not given)	active: 22.4 µM	
CCCn1ccc2c(OCC(=O)Nc3ccc(OC)c(OC)c3)cccc2c1=O		inactive: 0%
COc1ccc2c(Sc3ccccc3)c(C(=O)NCc3cc(Br)ccc3OC)[nH]c2c1		inactive: 13.6%
CN(Cc1nc(-c2cccnc2)no1)S(=O)(=O)c1ccc(Br)cc1	inconclusive [activator, partial curve]	
FC(F)(F)c1ccc(/C=N/n2c(C3CCCCC3)n[nH]c2=S)cc1	inconclusive [activator, partial curve]	
CCOc1ccc(S(=O)(=O)N2CCN(c3ccccc3F)CC2)c2cccnc12	inconclusive [activator, single point]	
O=C(c1sc2cc([N+](=O)[O-])ccc2c1Cl)N1CCOCC1	inconclusive [activator, single point]	
COc1ccccc1N1CCN(C(=O)c2ccc3c(c2)CCN3S(=O)(=O)c2ccccc2)CC1	inconclusive [activator, single point]	
Cc1oc(-c2ccccc2Cl)nc1CSc1nncn2c1cc1occc12		inactive: 0.198%
COc1ccc(Br)cc1CNC(=O)Cn1ncn2nc(-c3cccs3)cc2c1=O		inactive: 9.53%
CC1CCCN(c2nc(-c3cccnc3)nc3scc(-c4ccccc4)c23)C1 (stereo not given)	inconclusive [activator, single point]	
COc1ccc(C(=O)Nc2ccccc2N2CCOCC2)cc1[N+](=O)[O-]	inconclusive [activator, full curve]	
Cc1cc([N+](=O)[O-])nn1CCCC(=O)Nc1sc2c(c1C(N)=O)CCCC2		inconclusive: -91.1% [activator]
Cc1ccc(CNC(=O)C(C)n2c(=O)cc(-c3ccccc3)c3c(C)nn(C)c32)cc1 (stereo not given)	active: 22.4 µM	
Cc1ccc2nc(-c3ccncc3)cc(C(=O)Nc3ccc(F)cc3C)c2c1	inconclusive [activator, partial curve]	
Cc1cc(C)n(C2CC(=O)N(c3cccc(Cl)c3)C2=O)n1 (stereo not given)	inconclusive [activator, partial curve]	
O=C(NCc1ccc2[nH]c3c(c2c1)CCCC3)c1ccc(S(=O)(=O)N2CCOCC2)cc1	inconclusive [activator, partial curve, poor fit]	
Cc1ccccc1S(=O)(=O)Cc1ccc(C(=O)N2CCN(c3ccccc3F)CC2)o1	inconclusive [activator, single point]	
CC(C)(NC(=O)c1ccccc1)c1nc2ccccc2s1	inconclusive [activator, partial curve, poor fit]	
Cc1cc(C)c(/C=C2\C(=O)Nc3ccccc32)[nH]1	inconclusive [activator, partial curve]	
CN(c1ccccc1)S(=O)(=O)c1ccc(NC(=O)c2ccc(F)cc2)cc1		inactive: 28.8%
CCCNC(=O)C1(C)CCN1C(=O)C1(c2ccccc2)CC1 (stereo not given)		inactive: 17.1%
Cc1cc(C)n(-c2ccc(C(=O)N3CCc4ccccc43)cc2)n1	active: 11.2 µM	
CC(=O)N1NC(=Nc2ccccc2)SC1(C)C	inconclusive [activator, partial curve]	

SMILES	Potency	growth rescue (activation)
COc1ccc(NC(=O)CN(c2ccc(C)cc2)S(=O)(=O)c2cccs2)cc1		inactive: 24.4%
CN(C)c1ccc(-c2csc(C(C)(O)c3cccc(F)c3)n2)cc1 (stereo not given)	inconclusive [activator, partial curve, poor fit]	
CCOC(=O)Cn1c(=O)n(-c2ccc(Cl)cc2)c2nc(-c3ccc(Cl)cc3)nc(C(N)=O)c21		inactive: -1.69%
O=C(CCc1ccccc1)N1CCc2c([nH]c3ccccc23)C1c1ccc(F)cc1 (stereo not given)		inactive: -17.7%
CCN(CC)c1ccc(/C=C(\C#N)C(N)=O)cc1	inconclusive [activator, partial curve]	
CCOc1cc(CNc2ccc3c(c2)OCCO3)cc(Br)c1OC	inconclusive [activator, single point]	
CN(C)/C=N/c1ncc(C(=O)c2ccc3ccccc3c2)s1	inconclusive [activator, single point]	
CCOC(=O)Cn1nc(-c2ccccc2)c2cnc3ccc(CC)cc3c21	inconclusive [activator, partial curve]	
COc1cc2c3nnc(-c4ccccc4)c-3cn(Cc3ccc(F)cc3)c2cc1OC		inactive: -21.5%
Cc1ccc(C(C)C)cc1NC(=O)Nc1ccc([N+](=O)[O-])cc1		inconclusive: -90.2% [activator]
COc1ccc(NC(=O)C2CCCN2S(=O)(=O)c2ccc(F)cc2)cc1 (stereo not given)	inconclusive [activator, partial curve]	
O=C(NCCc1ccccc1)c1cc(-c2ccc(Cl)c(Cl)c2)on1	inconclusive [activator, single point]	
COc1ccc2nc(-c3ccccc3)cc(C(=O)OCC(=O)N3CCCCC3)c2c1	inconclusive [activator, single point]	
Cn1c(SC(C(=O)Nc2ccc(F)cc2)c2ccccc2)nc2ccccc21 (stereo not given)	inconclusive [activator, full curve]	
Cc1csc2nc(-c3cccc(NC(=O)c4c(F)cccc4F)c3)cn12		inactive: 17.7%
Cn1c(=O)c2c(ncn2CC(=O)OCC(=O)Nc2cc(Cl)ccc2Cl)n(C)c1=O		inactive: 19.1%
O=C(COC(=O)c1cnccn1)c1ccc(Cl)c([N+](=O)[O-])c1	inconclusive [activator, partial curve]	
Cc1cccc(-c2cc3nc4c(c(N5CCOCC5)n3n2)CCCC4)c1	inconclusive [activator, single point]	
CC1CC(C)CN(C(=O)C(NS(=O)(=O)c2ccc(Br)s2)c2ccccc2)C1 (stereo not given)	active: 14.1 µM	
COC(=O)c1ccc(NC(=O)CSc2nc(=O)n3cccc(C)c3n2)cc1		inactive: 0%
COc1ccc(CN2CCOC2=O)cc1OC		inactive: 5.01%
Cc1cccc(NC(=O)CN2CCN(C(=O)c3oc4c(Cl)cccc4c3C)CC2)c1C	inconclusive [activator, single point]	
CC(C)Oc1ccc(CNS(=O)(=O)c2ccc(-c3cc(C(F)(F)F)on3)s2)cc1		inactive: -1.23%
O=C(CNS(=O)(=O)c1cccs1)N1CCCC1		inactive: 6.28%

SMILES	Potency	growth rescue (activation)
CC(OC(=O)C1CCCCC1)C(=O)Nc1cccc([N+](=O)[O-])c1 (stereo not given)	inconclusive [activator, partial curve]	
Cc1ccc2oc(C(=O)Nc3ccc(S(=O)(=O)Nc4nc(C)cc(C)n4)cc3)cc(=O)c2c1		inactive: 22.1%
Cc1ccc2nc(CN3CCN(S(=O)(=O)c4ccc(F)cc4)CC3)oc2c1	active: 15.8 µM	
COc1cccc(-c2csc(N3CCN(C(=O)Nc4ccccc4Cl)CC3)n2)c1	inconclusive [activator, partial curve]	
COc1ccc(C(C)(NC(C)=O)c2nc(-c3ccncc3)cs2)cc1 (stereo not given)	inconclusive [activator, full curve, poor fit]	
Cc1cccnc1Nc1nc(-c2ccc(F)cc2)cs1	inconclusive [activator, partial curve]	
CC(Sc1nc(N)cc(=O)[nH]1)C(=O)Nc1cccc(Cl)c1 (stereo not given)	inconclusive [activator, full curve, poor fit]	
Cc1ccc2nc(NC(=O)C3CCN(S(=O)(=O)c4cc([N+](=O)[O-])ccc4Cl)CC3)sc2c1	inconclusive [activator, partial curve]	
Cc1ccccc1Cn1cnc2ccccc2c1=O	inconclusive [activator, partial curve]	
Cc1cccc(OCCSc2ncnc3nc[nH]c23)c1	inconclusive [activator, single point]	
O=C(Nc1cccc(-c2cnc3ccccc3n2)c1)c1ccco1	inconclusive [activator, single point]	
Cc1ccc2nc(SCC(=O)N3CCC(Cc4ccccc4)CC3)nc(=O)n2c1		inactive: 26.8%
Cc1c(-c2nc(-c3ccc4c(c3)OCO4)no2)nnn1-c1cccc(C(F)(F)F)c1		inactive: 29.3%
Cc1ccc(Cl)cc1N1CCN(C(=O)COCc2cc(-c3ccc4c(c3)OCO4)on2)CC1	inconclusive [activator, single point]	
CC1=C(C(=O)OCc2ccccc2)C(/C=C/c2ccccc2)NC(=S)N1 (stereo not given)	inconclusive [activator, single point]	
O=c1c2ccccc2nnn1Cc1ccccc1Cl	inconclusive [activator, single point]	
NC(=O)c1sc(=S)n(-c2ccc(Br)cc2)c1N	inconclusive [activator, partial curve]	
Cc1ccc2onc(CC(=O)N3CCN(c4cccc(C)c4C)CC3)c2c1	active: 25.1 µM	
COc1ccccc1N1CCN(C(=O)c2cc3ccccc3[nH]2)CC1	inconclusive [activator, partial curve, poor fit]	
CCOC(=O)c1n[nH]n(-c2cc(Cl)cc(Cl)c2)c1=O	inconclusive [activator, partial curve]	
O=C1c2oc3ccccc3c(=O)c2C(c2cccc(Br)c2)N1c1ccccn1 (stereo not given)	inconclusive [activator, partial curve, poor fit]	
Cc1cccc2cc3c(N)c(C(=O)N4CCCc5ccccc54)sc3nc12	active: 15.8 µM	
